The supplement of paper PMC7826260
Some of the results follow. Each Rep nickase domain was tested in vitro on the same pool of single strands for 1 h at 37 °C with 3 µM enzyme; only the middle of the 90-letter strands is printed. Uncut reads are compared with the no-enzyme pool on a log2 scale; the lower, the more was cut; hits are not called. Shares of all reads are compared; uncut strands gain when others are lost, and binding without cutting may add a little.

Key:
Assay in all cases: uncleaved DNA left, log2 of reads against the no-enzyme library (log2 ratio); higher = less cleavage (more negative = more Rep cleavage of the k-mer); sequences stand for … in CTCGTCCG…ACCGGAGA
[1] = tested on: T1, Rep nickase domain of Muscovy duck circovirus
T1 sequence (protein, residues 1-111, tag omitted): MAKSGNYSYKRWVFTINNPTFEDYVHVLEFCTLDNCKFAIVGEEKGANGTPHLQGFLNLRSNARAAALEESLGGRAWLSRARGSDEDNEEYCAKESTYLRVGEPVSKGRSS
Experimental: (§1)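 A pool of 90-nt single-stranded DNAs with seven random bases just before the constant AC of the nick site (name = the seven bases) was cut by 3 µM recombinant His6-SUMO-tagged Rep nickase domain (300 nM DNA, 50 mM HEPES pH 8.0, 50 mM NaCl, 1 mM MnCl2, 1 h, 37 °C, three replicates). Uncut DNA was amplified and sequenced.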

[2] = tested on: T2, Rep nickase domain of banana bunchy top virus
T2 sequence (protein, residues 1-94, tag omitted): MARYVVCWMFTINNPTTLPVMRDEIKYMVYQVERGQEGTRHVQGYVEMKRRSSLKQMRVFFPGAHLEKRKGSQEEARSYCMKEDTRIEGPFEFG
Experimental: as §1

[3] = tested on: T3, Rep nickase domain of cabbage leaf curl virus
T3 sequence (protein, residues 1-116, tag omitted): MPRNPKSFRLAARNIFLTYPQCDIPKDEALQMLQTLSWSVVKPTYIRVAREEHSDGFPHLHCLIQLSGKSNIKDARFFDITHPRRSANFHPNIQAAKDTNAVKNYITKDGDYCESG
Experimental: as §1

[4] = tested on: T4, Rep nickase domain of chickpea chlorotic dwarf virus
T4 sequence (protein, residues 1-124, tag omitted): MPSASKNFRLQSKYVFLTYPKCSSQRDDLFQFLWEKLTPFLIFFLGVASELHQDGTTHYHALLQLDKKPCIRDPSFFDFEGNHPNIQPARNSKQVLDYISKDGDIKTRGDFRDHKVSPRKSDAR
Experimental: as §1

[5] = tested on: T5, Rep nickase domain of faba bean necrotic yellows virus
T5 sequence (protein, residues 1-98, tag omitted): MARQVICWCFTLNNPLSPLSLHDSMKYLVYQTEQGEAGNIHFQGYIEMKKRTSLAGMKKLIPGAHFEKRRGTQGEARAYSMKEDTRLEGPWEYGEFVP
Experimental: as §1

[6] = tested on: T6, Rep nickase domain of maize striate mosaic virus
T6 sequence (protein, residues 1-117, tag omitted): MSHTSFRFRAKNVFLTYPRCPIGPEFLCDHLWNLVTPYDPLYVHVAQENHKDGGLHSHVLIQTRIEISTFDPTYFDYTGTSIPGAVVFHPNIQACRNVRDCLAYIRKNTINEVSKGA
Experimental: as §1

[7] = tested on: T7, Rep nickase domain of porcine circovirus 2
T7 sequence (protein, residues 2-116, tag omitted): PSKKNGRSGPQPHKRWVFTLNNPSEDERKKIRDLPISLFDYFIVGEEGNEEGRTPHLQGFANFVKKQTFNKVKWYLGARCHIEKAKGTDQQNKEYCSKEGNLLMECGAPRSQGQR
Experimental: as §1

[8] = tested on: T8, Rep nickase domain of tomato golden mosaic virus
T8 sequence (protein, residues 1-124, tag omitted): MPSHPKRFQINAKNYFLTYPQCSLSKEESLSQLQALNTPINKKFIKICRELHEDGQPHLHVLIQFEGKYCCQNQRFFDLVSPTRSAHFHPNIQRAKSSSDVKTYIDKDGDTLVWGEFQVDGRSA
Experimental: as §1

[9] = tested on: T9, Rep nickase domain of tomato yellow leaf curl virus
T9 sequence (protein, residues 1-136, tag omitted): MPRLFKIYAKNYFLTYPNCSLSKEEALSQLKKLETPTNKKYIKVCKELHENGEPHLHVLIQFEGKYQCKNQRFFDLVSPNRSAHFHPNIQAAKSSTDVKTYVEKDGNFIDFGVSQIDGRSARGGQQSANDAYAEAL
Experimental: as §1

[10] = tested on: T10, Rep nickase domain of wheat dwarf virus
T10 sequence (protein, residues 1-137, tag omitted): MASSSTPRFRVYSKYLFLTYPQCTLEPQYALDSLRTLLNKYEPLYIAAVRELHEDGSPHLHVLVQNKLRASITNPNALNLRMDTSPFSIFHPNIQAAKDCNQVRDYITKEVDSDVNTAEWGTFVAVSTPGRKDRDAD
Experimental: as §1

Sequence	uncleaved DNA left (log2) [1]	uncleaved DNA left (log2) [2]	uncleaved DNA left (log2) [3]	uncleaved DNA left (log2) [4]	uncleaved DNA left (log2) [5]	uncleaved DNA left (log2) [6]	uncleaved DNA left (log2) [7]	uncleaved DNA left (log2) [8]	uncleaved DNA left (log2) [9]	uncleaved DNA left (log2) [10]
CGCGGAT	0.16	0.00364	0.322	1.36	-0.000227	1.72	0.173	0.11	-0.0311	-0.0261
TACCTAT	0.112	0.0788	-0.33	-2.6	0.0475	-0.425	-1.95	0.00959	-0.000811	-0.0706
GTGGTCA	0.129	0.165	0.487	1.26	-0.0285	2.1	0.169	0.16	0.125	0.101
CAGAACC	-0.0623	-0.0633	0.043	-0.351	0.0273	0.0649	-0.322	0.0519	-0.124	0.0153
ACAGCAG	-0.026	0.00253	-0.685	0.0786	0.0145	-0.587	0.237	0.0251	0.00547	-0.0215
ACCTCAT	0.0784	0.0672	0.045	-0.158	-0.000217	0.0821	-0.193	0.0911	-0.204	-0.00649
GAGGCCC	0.148	0.158	0.443	1.29	0.0593	1.64	0.115	0.0436	0.201	0.334
ACCAGAA	-0.00353	0.0456	-0.0691	-0.0883	0.147	-0.753	0.082	-0.0149	-0.0466	0.00041
TGGCTGA	0.209	0.281	0.361	1.14	0.115	1.76	0.277	0.129	0.205	0.259
ATAGTAT	0.0155	-0.0224	0.136	0.751	0.105	1.1	0.153	0.109	-0.0746	-0.0696
CGGCCAT	-0.0163	0.0118	0.586	1.53	0.0122	1.72	0.0849	-0.0894	0.0257	0.0807
AGATATT	-3.77	-1.07	-2.73	-2.9	-0.183	0.0399	-4.37	-0.777	-0.104	-3.1
GGGGTCC	-0.0463	-0.0558	0.603	1.52	-0.0513	1.95	0.115	-0.0665	0.034	0.096
TCAAAGG	0.00394	0.0329	0.414	1.25	-0.0689	1.26	0.0352	0.133	-0.165	0.0256
ATATCGG	0.132	0.112	0.507	1.44	0.1	1.55	0.163	0.0588	0.026	0.0729
CAGCGTA	-0.045	-0.147	-0.48	-1.14	-0.0645	-0.918	-0.204	-0.063	0.0728	-0.114
GCGGGGT	0.0625	0.0971	0.499	1.01	0.0215	1.71	0.197	0.0748	0.00921	0.163
TGAGGTG	0.00671	-0.0909	-0.244	-0.205	-0.139	-0.446	0.087	-0.0368	-0.195	-0.168
GCTAGGC	-0.0384	-0.0564	0.218	0.588	-0.039	-0.178	0.0819	-0.00349	0.0622	-0.0407
CTAGAAC	0.0878	0.0787	0.0652	-0.327	0.0792	-0.452	0.195	0.0682	0.00659	-0.0361
TGATTAG	0.036	0.13	-0.721	-0.362	0.18	-1.09	0.258	-0.0376	0.00266	-0.0119
GTGAATC	-0.0131	0.102	0.107	0.776	-0.106	1.73	-0.0342	0.0265	-0.043	0.0868
GATTTGG	0.0278	-0.141	-0.039	0.0586	-0.00952	-0.626	0.104	0.0169	-0.0439	-0.0188
GTTCATC	-0.054	0.0207	0.209	0.884	-0.0975	1.52	0.0517	0.00389	0.053	-0.0313
ACGCACC	-0.029	0.0127	-0.222	-0.196	-0.161	-0.541	-0.0675	-0.122	-0.113	-0.075
TCTCCCA	-0.0788	0.0201	0.128	-0.559	0.0302	0.38	-1.25	-0.0658	0.022	-0.00062
TTATCTG	0.153	0.0916	-0.00442	0.316	0.107	0.542	0.0684	0.0221	0.0437	0.114
GGCTTTC	0.022	-0.032	0.523	1.12	-0.162	1.79	0.0432	-0.0211	0.0875	0.0464
CACGGAT	-0.0622	-0.218	0.135	1.41	-0.181	1.66	0.0431	-0.0199	-0.224	-0.153
GTGGCGA	0.00682	-0.0387	-0.148	0.193	-0.0833	-0.0508	0.0141	-0.0196	-0.0467	-0.0288
